Experimental data published in PubChem BioAssay AID588342 (National Center for Advancing Translational Sciences (NCATS), 2011).
Where “and” joins values, the source holds several entries; their conditions need not be identical. Equal entries are not always repeated. About 25,000 (6.9%) of roughly 360,000 compounds were called active. The inconclusive results got no clear call from the source; some entries with a clear call stand among them for comparison. Calls come from the whole dose curve; as a rule, active = well fitted inhibition curve with a large enough effect; inconclusive = small, poorly fitted or top-dose-only effect; inactive = flat fitted curve, though single readings scatter. Potencies beside an inconclusive call are fits to weak or partial responses and may not hold up.

Each compound was assayed against Luciferin 4-monooxygenase (Photinus pyralis) (UniProt P08659) (assay: qHTS profiling assay for firefly luciferase inhibitor/activator using purifed enzyme and Km concentrations of substrates (counterscreen for miR-21 project)). Settings: purified FLuc, luminescence inhibition; activity change, negative = inhibition: at 57.5 µM (top of the series).
UniProt P08659, sequence (P08659 whole entry, looked up): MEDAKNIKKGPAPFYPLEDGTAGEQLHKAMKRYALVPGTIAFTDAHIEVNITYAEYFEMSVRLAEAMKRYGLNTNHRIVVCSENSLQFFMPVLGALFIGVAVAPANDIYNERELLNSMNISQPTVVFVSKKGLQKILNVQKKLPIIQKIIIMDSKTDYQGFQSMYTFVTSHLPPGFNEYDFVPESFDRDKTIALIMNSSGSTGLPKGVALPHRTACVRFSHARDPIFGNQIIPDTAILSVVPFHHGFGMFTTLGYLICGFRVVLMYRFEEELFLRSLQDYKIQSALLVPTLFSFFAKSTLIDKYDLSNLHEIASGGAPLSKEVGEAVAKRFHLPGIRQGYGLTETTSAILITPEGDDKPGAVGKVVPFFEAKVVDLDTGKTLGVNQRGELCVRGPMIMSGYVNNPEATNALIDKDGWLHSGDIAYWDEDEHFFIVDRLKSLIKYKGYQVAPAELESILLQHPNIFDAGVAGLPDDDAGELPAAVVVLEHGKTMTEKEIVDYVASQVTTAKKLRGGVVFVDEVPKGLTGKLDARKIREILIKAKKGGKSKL
How it was run: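 Purified P. pyralis luciferase, 10 nM final, with Km-level 10 uM D-luciferin and 10 uM ATP in 50 mM Tris acetate pH 7.5, 10 mM Mg acetate, 0.01% Tween-20, 0.05% BSA; 6-point qHTS titration about 60 µM downward; luminescence read.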
Note: nearly all actives have a fitted effect of over 55% in size.
Potency is the fitted concentration of half-maximal effect; tags give direction and shape of the fitted curve.
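Throughout, for activity change, negative = inhibition: plate controls were vehicle for no effect and reference inhibitor for full effect.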

For `Cc1ccc(S(=O)(=O)N/N=C2/CC(c3ccccc3)Oc3ccccc32)cc1[N+](=O)[O-]` (stereo not given), which Potency is on record?
Its Potency is inconclusive: 26.9 µM [inhibitor, single point].

Which Potency does the source give for `O=C(CN1CCN(C(=O)C2CCN(C(=O)/C=C/c3ccccc3)CC2)CC1)Nc1ccccc1Cl` here?
Its Potency is inconclusive: 19 µM [inhibitor, single point].

For `COc1ccc(C2Nc3ccccc3C(=O)N2c2ccccc2)cc1CN1CCOCC1` (stereo not given), which “activity change, negative = inhibition” value is on record?
Its value is inactive: 2.55%.

Which Potency does the source give for `Cc1cccc(NC(=O)c2cnc3sccn3c2=O)c1` here?
The Potency was active: 3.38 µM.

How did the Potency turn out when `CC(C)(C)c1ccc(-c2nnc(SCC(=O)Nc3sc4c(c3C#N)CCCC4)o2)cc1` was run?
The Potency was inconclusive: 3.01 µM [inhibitor, full curve].

With `CCN(C(=O)CSc1nc2ccccc2o1)C1CCS(=O)(=O)C1` (stereo not given) as the compound, how does the Potency read?
Its Potency is inconclusive: 33.8 µM [inhibitor, single point].

With `CCOc1ccc(N=C2C(=O)N(CN3CCOCC3)c3ccccc32)cc1` as the compound, how does the Potency read?
The Potency was inconclusive: 26.9 µM [inhibitor, single point].

`O=S(=O)(NC1CCN(S(=O)(=O)c2ccc3c(c2)OCCO3)C1)c1c(F)cccc1F` (stereo not given) was tested. Which “activity change, negative = inhibition” value did it give?
The value was inactive: 0.298%.

`CC(=O)c1ccccc1NC(=O)COc1ccc(N(C)S(=O)(=O)c2ccc(C)c(C)c2)cc1` was tested. Which “activity change, negative = inhibition” value did it give?
Its value is inactive: 0.627%.

`CN1CCN(c2ccc(-c3ccnn3C(=O)Nc3cccc(C(F)(F)F)c3)cc2)CC1` was tested. Which Potency did it give?
The Potency was active: 21.3 µM.

With `C(=N/Nc1nc(-c2ccccc2)cc(-c2ccccc2)n1)/c1cccnc1` as the compound, how does the Potency read?
The Potency was active: 2.69 µM.

With `CC(C)Oc1ccc(C(=O)Nc2ccccc2N2CCOCC2)cc1` as the compound, how does the Potency read?
Its Potency is inconclusive: 30.1 µM [inhibitor, single point].

For `COc1ccc(CCC(=O)OCC(=O)c2cccc(OC)c2)cc1`, which Potency is on record?
Its Potency is inconclusive: 37.9 µM [inhibitor, partial curve, poor fit].

`COc1cc(C(=O)/C=C/Nc2ccc(NC(C)=O)cc2)cc(OC)c1OC` was tested. Which Potency did it give?
Its Potency is inconclusive: 21.3 µM [inhibitor, partial curve].

With `CCC(C)C(=O)Nc1cccc(SC)c1` (stereo not given) as the compound, how does the Potency read?
The Potency was inconclusive: 37.9 µM [inhibitor, partial curve, poor fit].

With `O=C(CCNS(=O)(=O)c1ccc2c(c1)CCN2C(=O)C1CC1)Nc1ccc(F)cc1F` as the compound, how does the “activity change, negative = inhibition” value read?
The value was inactive: 4.34%.

For `O=C(NCc1ccco1)Nc1ccccc1Cl`, which Potency is on record?
Its Potency is inconclusive: 37.9 µM [inhibitor, partial curve, poor fit].

With `COc1ccc(NC(=O)CSc2nccn2-c2cccc(OC)c2)cc1` as the compound, how does the Potency read?
The Potency was inconclusive: 30.1 µM [inhibitor, single point].

How did the Potency turn out when `COc1cc(C(=O)NC(=S)Nc2ccccc2N2CCOCC2)cc(OC)c1OC` was run?
Its Potency is inconclusive: 26.9 µM [inhibitor, single point].

How did the Potency turn out when `O=C(NCCc1csc(-c2ccc(F)cc2)n1)c1ccc(Br)o1` was run?
The Potency was inconclusive: 37.9 µM [inhibitor, partial curve, poor fit].

For `Cc1ccccc1CN1CCN(CC(=O)NCc2ccccc2Cl)C1=O`, which “activity change, negative = inhibition” value is on record?
The value was inactive: -16.4%.

With `Cc1nc2cc(-c3ccccc3)nn2c(C)c1CCC(=O)N1CCN(c2ccccc2)CC1` as the compound, how does the Potency read?
Its Potency is inconclusive: 26.9 µM [inhibitor, partial curve, poor fit] and inconclusive: 23.9 µM [inhibitor, partial curve, poor fit].

With `O=C(CN1C(=O)C(=O)N(C2CCCC2)C1=O)Nc1ccc(OC(F)F)cc1` as the compound, how does the “activity change, negative = inhibition” value read?
The value was inactive: 3%.

For `O=C(OCC(=O)N1CCCc2ccccc21)c1c(F)cccc1F`, which Potency is on record?
Its Potency is inconclusive: 23.9 µM [inhibitor, partial curve, poor fit].

For `Cc1cc(C(=O)OCC(=O)N2CCN(c3ccccc3)CC2)c2ccccc2n1`, which Potency is on record?
The Potency was inconclusive: 30.1 µM [inhibitor, partial curve, poor fit].

For `COCc1cc(CN2CCN(CCc3ccccc3)C(CCO)C2)ccc1OC` (stereo not given), which “activity change, negative = inhibition” value is on record?
The value was inactive: -1.47%.

How did the Potency turn out when `COc1cc(/C=C2\SC(=S)NC2=O)ccc1OS(=O)(=O)c1ccccc1` was run?
The Potency was inconclusive: 37.9 µM [inhibitor, partial curve, poor fit].

With `Cc1ccc(-c2nc3s/c(=C\c4ccco4)c(=O)n3n2)cc1` as the compound, how does the Potency read?
The Potency was active: 0.757 µM.

For `CCOC(=O)CSc1nc2ccc(NC(=O)c3ccccc3)cc2s1`, which Potency is on record?
The Potency was inconclusive: 26.9 µM [inhibitor, partial curve].

Which Potency does the source give for `CCCCc1nc2cc(C(=O)N3CCCC(COC)C3)ccc2o1` (stereo not given) here?
Its Potency is active: 16.9 µM.

`COc1cc(-c2nnc(SCCOc3ccc(C)c(Cl)c3)o2)cc(OC)c1OC` was tested. Which Potency did it give?
The Potency was inconclusive: 16.9 µM [inhibitor, partial curve].

With `CCCn1c(C)cc(C(=O)COC(=O)c2c(C)nn(-c3ccccc3)c2C)c1C` as the compound, how does the Potency read?
Its Potency is inconclusive: 23.9 µM [inhibitor, single point].

`Cc1ccc(SCc2cn3c(C)cc(C)nc3n2)cc1` was tested. Which Potency did it give?
Its Potency is inconclusive: 16.9 µM [inhibitor, partial curve].

Which Potency does the source give for `O=C(O)COc1ccc2c3c(c(=O)oc2c1)CCCC3` here?
The Potency was inconclusive: 37.9 µM [inhibitor, partial curve, poor fit].

With `COc1cccc(-c2cc(C(=O)NCC3CCCO3)c3cc(C)cc(C)c3n2)c1` (stereo not given) as the compound, how does the Potency read?
The Potency was active: 1.9 µM.

How did the Potency turn out when `COCc1ccc(CN2CCc3c([nH]c4ccccc34)C2C(C)(C)C)o1` (stereo not given) was run?
The Potency was inconclusive: 2.69 µM [inhibitor, full curve].

How did the Potency turn out when `Nc1c(-c2ccc(Cl)cc2)cnc2c(-c3ccc(F)cc3)cnn12` was run?
Its Potency is active: 1.51 µM.

With `O=C(O)c1cc(-c2ccccc2)nc2nc(N3CCCCC3)sc12` as the compound, how does the Potency read?
The Potency was active: 16.9 µM.

With `COc1ccc(NC(=O)Nc2ccc(C(C)C)cc2)cc1` as the compound, how does the Potency read?
Its Potency is inconclusive: 21.3 µM [inhibitor, partial curve].

For `C/C(=N\NC(=O)c1ccc([N+](=O)[O-])cc1)c1c(O)cc(C)oc1=O`, which Potency is on record?
Its Potency is inconclusive: 37.9 µM [inhibitor, single point].

Which Potency does the source give for `CCOc1ccc(Oc2ccc(C(F)(F)F)cc2N)cc1` here?
The Potency was inconclusive: 21.3 µM [inhibitor, single point].

For `CN(C(=O)CSc1nnc(NC2CCCCC2)s1)C1CCS(=O)(=O)C1` (stereo not given), which “activity change, negative = inhibition” value is on record?
The value was inactive: 1.57%.

For `Cc1cc(NC(=O)c2ccc(Cl)cc2)cc(C)c1OCC(=O)N1CCOCC1`, which Potency is on record?
Its Potency is active: 1.69 µM.

Which Potency does the source give for `COc1ccc(/C(N)=N/OC(=O)c2cccc([N+](=O)[O-])c2C)cc1` here?
The Potency was active: 16.9 µM.

For `Cc1cc(C)cc(OCC(=O)N2Cc3ccccc3CC2C(=O)O)c1` (stereo not given), which Potency is on record?
Its Potency is inconclusive: 37.9 µM [inhibitor, partial curve, poor fit].

How did the Potency turn out when `CCCC(=O)Nc1nc(-c2ccc3c(c2)OCCO3)cs1` was run?
The Potency was active: 6.01 µM.

Which “activity change, negative = inhibition” value does the source give for `COC(=O)Nc1ccc(S(=O)(=O)N2CCCC(C(=O)NC3CCS(=O)(=O)C3)C2)cc1` (stereo not given) here?
The value was inactive: 4.63%.

`CN(Cc1ccccc1)C(=O)CSc1cc(=O)n(C)c2ccccc12` was tested. Which Potency did it give?
Its Potency is inconclusive: 23.9 µM [inhibitor, single point].

Which Potency does the source give for `S=C(NCCC1=CCCCC1)NCc1ccco1` here?
The Potency was inconclusive: 37.9 µM [inhibitor, single point].

`Cc1cccc(-n2[nH]c(C)c(C=Nc3ccc4[nH]c(=O)[nH]c4c3)c2=O)c1` was tested. Which Potency did it give?
The Potency was inconclusive: 15.1 µM [inhibitor, partial curve].

For `O=c1cc(-c2ccccc2)nc2nc(SCc3ccccc3)[nH]n12`, which Potency is on record?
Its Potency is active: 26.9 µM.

For `CCCS(=O)(=O)Nc1cc2c(cc1NCc1ccccc1)n(C)c(=O)n2C`, which Potency is on record?
Its Potency is inconclusive: 23.9 µM [inhibitor, single point].

Which “activity change, negative = inhibition” value does the source give for `Cc1ccccc1-n1c(SCC(=O)c2c(N)n(C)c(=O)n(C)c2=O)nc2sc3c(c2c1=O)CCCC3` here?
The value was inactive: 2.82%.

Which Potency does the source give for `CCOc1ccc(NC(=O)c2ccccc2SC)cc1` here?
The Potency was active: 16.9 µM.

For `Cc1nnc(NC(=O)/C=C/c2ccco2)s1`, which Potency is on record?
The Potency was inconclusive: 23.9 µM [inhibitor, partial curve, poor fit].

For `Fc1cccc(Cl)c1CSC1=NCCS1`, which Potency is on record?
Its Potency is inconclusive: 37.9 µM [inhibitor, single point].

How did the Potency turn out when `CCOC(=O)N1CCN(C(=O)c2cc(COc3cccc(C(F)(F)F)c3)on2)CC1` was run?
Its Potency is active: 15.1 µM.

`CCc1nnc(NC(=O)c2ccc(-c3ccc(Cl)cc3)o2)s1` was tested. Which Potency did it give?
Its Potency is inconclusive: 6.75 µM [inhibitor, partial curve, poor fit].

For `COC(C[C@H](O)[C@@H](C)[C@H](O)COCc1ccccc1)OC`, which “activity change, negative = inhibition” value is on record?
Its value is inactive: 3.42%.

`Cc1cc(C)c(NC(=O)CSc2ncc(S(=O)(=O)c3ccc(C(C)(C)C)cc3)c(=O)[nH]2)c(C)c1` was tested. Which Potency did it give?
The Potency was active: 10.7 µM.

`COc1ccc(C2=NN(c3ccccc3)C(c3cn(CCC(=O)O)nc3-c3ccccc3)C2)cc1` (stereo not given) was tested. Which Potency did it give?
The Potency was active: 4.26 µM.

With `Nc1ccc(C(=O)OCC(=O)N2CCc3ccccc3C2)cc1[N+](=O)[O-]` as the compound, how does the Potency read?
Its Potency is inconclusive: 0.757 µM [inhibitor, full curve, poor fit].

`Cc1ccc(NC(=O)c2ccc3c(=O)n4c(nc3c2)CCCCC4)nc1` was tested. Which Potency did it give?
The Potency was inconclusive: 21.3 µM [inhibitor, single point].

With `Cc1cc(C(=O)N/N=C/c2cccc(Cl)c2Cl)no1` as the compound, how does the Potency read?
Its Potency is active: 10.7 µM.

Which Potency does the source give for `CC(=O)Nc1ccc(S(=O)(=O)NC2=C(N3CCN(C)CC3)C(=O)c3ccccc3C2=O)cc1` here?
The Potency was inconclusive: 26.9 µM [inhibitor, partial curve, poor fit].

With `O=C(NCCc1ccccc1)Nc1cccc(Cl)c1` as the compound, how does the Potency read?
The Potency was active: 16.9 µM.

For `Cc1csc(NC(=O)CSc2nnc(-c3ccoc3C)n2Cc2ccco2)n1`, which “activity change, negative = inhibition” value is on record?
The value was inactive: 5.29%.

For `CC(=O)Nc1ccc(S(=O)(=O)NCCCN2CCN(Cc3ccccc3)CC2)cc1Cl`, which “activity change, negative = inhibition” value is on record?
Its value is inactive: -1.34%.

For `COCCN(C(=O)COC(=O)Cc1c[nH]c2ccccc12)c1c(N)n(Cc2ccccc2)c(=O)[nH]c1=O`, which “activity change, negative = inhibition” value is on record?
The value was inactive: -11.9%.

How did the Potency turn out when `Cn1cc(/C=C2\SC(=O)N(c3ccc(O)cc3)C2=O)c2ccccc21` was run?
The Potency was inconclusive: 5.36 µM [inhibitor, partial curve, poor fit].
